Measurements reported in the supplement of paper PMC4604168 (melanoma cell lines).
This is one part of the list. Many values rest on one well or one pass, so single values are uncertain.

Key:
Experiment in all cases: cell count relative to DMSO control; melanoma cells; higher = more viable cells
Settings in all cases: library dose: low library concentration; 72 h
MZ2-MEL = system: MZ2-MEL
MeWo = system: MeWo
RPMI7951 = system: RPMI7951
RVH-421 = system: RVH-421
SkMel28 = system: SkMel28
SkMel2 = system: SkMel2
SkMel30 = system: SkMel30
UACC62 = system: UACC62
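Note: cell number obtained by counting DAPI-stained nuclei in high-throughput microscope images with image analysis software, screen run in 1,536-well plates.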

Structure (SMILES)	cell count (MZ2-MEL)	cell count (MeWo)	cell count (RPMI7951)	cell count (RVH-421)	cell count (SkMel28)	cell count (SkMel2)	cell count (SkMel30)	cell count (UACC62)
Cc1cc(Nc2cc(N3CCN(C)CC3)nc(/C=C/c3ccccc3)n2)n[nH]1 + CS(=O)(=O)CCNCc1ccc(-c2ccc3ncnc(Nc4ccc(OCc5cccc(F)c5)c(Cl)c4)c3c2)o1 [lapatinib] (first compound 0.04 µM, partner dose 0.8 µM)	89.7%	86%	70.1%	104%	79.4%	91.7%	102%	93.8%
COc1ccc(C2=N[C@@H](c3ccc(Cl)cc3)[C@@H](c3ccc(Cl)cc3)N2C(=O)N2CCNC(=O)C2)c(OC(C)C)c1 [Nutlin-3] + Nc1cccc2c1CN(C1CCC(=O)NC1=O)C2=O [lenalidomide] (first compound 0.1 µM, partner dose 1 µM)	99.3%	99.8%	101%	71.4%	91.6%	98.7%	108%	79%
Cc1cn(-c2cc(NC(=O)c3ccc(C)c(Nc4nccc(-c5cccnc5)n4)c3)cc(C(F)(F)F)c2)cn1 [nilotinib] + C#Cc1cccc(Nc2ncnc3cc(OCCOC)c(OCCOC)cc23)c1 [erlotinib] (first compound 0.2 µM, partner dose 0.8 µM)	87.8%	93.1%	61%	93.8%	109%	97.8%	86%	84%
CC(C)C[C@H](NC(=O)[C@H](Cc1ccccc1)NC(=O)c1cnccn1)B(O)O [Bortezomib] + COCC[n+]1c2c(n(Cc3cnccn3)c1C)C(=O)c1ccccc1C2=O [YM155] (first compound 0.001 µM, partner dose 0.0004 µM)	48.4%	74.6%	56.9%	64.3%	83.7%	81.3%	87%	62.1%
COc1ccc(C2=N[C@@H](c3ccc(Cl)cc3)[C@@H](c3ccc(Cl)cc3)N2C(=O)N2CCNC(=O)C2)c(OC(C)C)c1 [Nutlin-3] + C[C@]1(O)C[C@@H](c2nc(-c3ccc4ccc(-c5ccccc5)nc4c3)c3c(N)nccn32)C1 [OSI906] (first compound 0.1 µM, partner dose 0.4 µM)	90.7%	95.5%	92.3%	105%	80.6%	87.2%	101%	80.7%
Cc1cc(Nc2cc(N3CCN(C)CC3)nc(/C=C/c3ccccc3)n2)n[nH]1 + CC(C)C[C@H](NC(=O)[C@H](Cc1ccccc1)NC(=O)c1cnccn1)B(O)O [Bortezomib] (first compound 0.04 µM, partner dose 0.001 µM)	93.6%	92.9%	86%	77.6%	92.8%	90.9%	111%	104%
CC(C)C[C@H](NC(=O)[C@H](Cc1ccccc1)NC(=O)c1cnccn1)B(O)O [Bortezomib] + Cc1nc(Nc2ncc(C(=O)Nc3c(C)cccc3Cl)s2)cc(N2CCN(CCO)CC2)n1 [dasatanib] (first compound 0.001 µM, partner dose 0.004 µM)	54.8%	73.7%	63.2%	81.5%	77.2%	103%	58.8%	60.1%
CC(C)C[C@H](NC(=O)[C@H](Cc1ccccc1)NC(=O)c1cnccn1)B(O)O [Bortezomib] + O=C(O)c1ccc2c(c1)nc(Nc1cccc(Cl)c1)c1ccncc12 [CX4945] (first compound 0.001 µM, partner dose 0.4 µM)	62.1%	79.5%	59.9%	44.1%	95.5%	90.5%	66.8%	53.7%
Cn1c(=O)n(-c2ccc(C(C)(C)C#N)cc2)c2c3cc(-c4cnc5ccccc5c4)ccc3ncc21 + CS(=O)(=O)CCNCc1ccc(-c2ccc3ncnc(Nc4ccc(OCc5cccc(F)c5)c(Cl)c4)c3c2)o1 [lapatinib] (first compound 0.004 µM, partner dose 0.8 µM)	103%	85.6%	92%	83%	104%	84.4%	76.4%	82.8%
Cn1c(=O)n(-c2ccc(C(C)(C)C#N)cc2)c2c3cc(-c4cnc5ccccc5c4)ccc3ncc21 + C=C(c1ccc(C(=O)O)cc1)c1cc2c(cc1C)C(C)(C)CCC2(C)C [Bexarotene] (first compound 0.004 µM, partner dose 2 µM)	101%	77.1%	79.9%	108%	77%	84.2%	79.8%	82.1%
COc1ccc(C2=N[C@@H](c3ccc(Cl)cc3)[C@@H](c3ccc(Cl)cc3)N2C(=O)N2CCNC(=O)C2)c(OC(C)C)c1 [Nutlin-3] + O=C(O)[C@@H]1[O][Sb](=[O])([O][Sb]2(=[O])[O][C@H]([C@H](O)CO)[C@H](O)[C@H](C(=O)O)[O]2)[O][C@H]([C@H](O)CO)[C@@H]1O [stibogluconate] (first compound 0.1 µM, partner dose 2 µM)	90.1%	96.6%	91.1%	76.4%	112%	100%	89.1%	79.8%
CC(C)C[C@H](NC(=O)[C@H](Cc1ccccc1)NC(=O)c1cnccn1)B(O)O [Bortezomib] + CN1CCN(c2ccc3nc(-c4c(N)c5c(F)cccc5[nH]c4=O)[nH]c3c2)CC1 [Dovitinib] (first compound 0.001 µM, partner dose 0.1 µM)	31.9%	67.9%	37.4%	33%	91%	91.3%	50.2%	61.6%
COc1ccc(C2=N[C@@H](c3ccc(Cl)cc3)[C@@H](c3ccc(Cl)cc3)N2C(=O)N2CCNC(=O)C2)c(OC(C)C)c1 [Nutlin-3] + Cc1nc(Nc2ncc(C(=O)Nc3c(C)cccc3Cl)s2)cc(N2CCN(CCO)CC2)n1 [dasatanib] (first compound 0.1 µM, partner dose 0.004 µM)	80.6%	88.9%	73.5%	66.8%	80.8%	107%	93.4%	74.1%
COc1ccc(C2=N[C@@H](c3ccc(Cl)cc3)[C@@H](c3ccc(Cl)cc3)N2C(=O)N2CCNC(=O)C2)c(OC(C)C)c1 [Nutlin-3] + CNC(=O)c1cc(Oc2ccc(NC(=O)Nc3ccc(Cl)c(C(F)(F)F)c3)cc2)ccn1 [sorafenib] (first compound 0.1 µM, partner dose 0.4 µM)	89.6%	114%	119%	81.1%	92.7%	97.7%	108%	97.3%
